From article PMC6717765, “p32 is a negative regulator of p53 tetramerization and transactivation” (Molecular Oncology, 2019)

Target: T1, His-tagged p32 (wild type, recombinant) (UniProt Q07021 74-282)
T1 construct: p32 (gC1qR/C1QBP/HABP1); also called His-p32; mature p32
T1 sequence (looked up): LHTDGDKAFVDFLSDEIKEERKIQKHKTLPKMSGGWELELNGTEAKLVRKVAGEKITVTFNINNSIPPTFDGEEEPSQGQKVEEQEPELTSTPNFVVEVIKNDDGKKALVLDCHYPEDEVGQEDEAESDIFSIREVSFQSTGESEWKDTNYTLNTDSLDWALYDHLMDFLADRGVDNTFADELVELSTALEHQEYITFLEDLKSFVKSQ
Experiment: pull-down; GST or GST-p53 fusions immobilised on glutathione-Sepharose beads, His-tagged p32 in solution; overnight at 4 °C; 20 mM Tris/HCl pH 7.3, 0.2 M KCl, 0.2 mM EDTA, 20% glycerol, 0.01% Nonidet P-40; blot with anti-His
Conditions: both partners purified

binding result: binds
B1: GST-p53 C-terminal region ([…]) (domain or fragment)
chain: not shown
notes: source: bacterially produced, purified on glutathione-Sepharose 4B beads
